Results published in PubChem BioAssay AID1508624 (National Center for Advancing Translational Sciences (NCATS), 2021).
Hit rate of the full screen: of about 48,000 compounds, about 120 (0.25%) were called active. Not shown: some 4% with an inconclusive outcome. Calls come from the whole dose curve; as a rule, active = well fitted activation curve with a large enough effect; inconclusive = small, poorly fitted or top-dose-only effect, or another doubt; inactive = no such curve, though single readings can be large or run the other way. This is one part of the list.

assay: Primary qHTS for Identification of Small Molecule Activators of Huntingtin-Antisense Promoter Activity; conditions: HEK293 HTT-AS promoter firefly luciferase reporter, 24 h; series mostly up to 57.5 µM; activity change, positive = activation: at the top concentration; note: nearly all actives have a fitted effect of over 55% in size
Method in brief: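 Firefly luciferase readout (Dual-Glo, 10 min RT) after 24 h, 37 °C compound exposure (final up to 57.5 uM) of HEK293 reporter cells cultured 24 h beforehand; PTC124 at 50 uM final as control inhibitor; activity scaled vehicle 0%, zero RLU -100%.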

Activity change, positive = activation, inactive:
COc1cc(NC(=O)c2cccc(Cl)c2Cl)ccc1NC(=O)c1cc2ccccc2o1 -27.3%
CCC(=O)N1CCc2cc(Br)cc(S(=O)(=O)CCC(=O)Nc3cccc(Cl)c3)c21 3.37%
CCCn1c2ccc(F)cc2c2nnc(SCCN3CCCCC3)nc21 -20.8%
CCCc1cnc2c(c1SCC(=O)Nc1ccccc1OCC)c(=O)n(C)c(=O)n2C -13.2%
Clc1ccc(-c2nnn3c2nc(NC2CCCCC2)c2ccccc23)cc1 -2.97%
CCOc1ccc(Nc2ncnc3c2c(-c2ccccc2)cn3-c2cccc(C)c2)cc1 -10.9%
CCOc1ccc(C(=O)N(Cc2ccc(C(C)C)cc2)Cc2ccco2)cc1 -17.4%
Cc1cc2c(cc1NS(=O)(=O)c1ccc(Br)cc1)n(C)c(=O)c(=O)n2C -33.9%
CCCSCCCNC(=O)c1ccc(C)c(NC(=O)c2nsc3ccccc23)c1 -14.6%
COc1cccc(Cn2nc(SC)c(S(=O)(=O)c3ccccc3)c2N(C(C)=O)C(C)=O)c1 -29.1%
Cc1cccc(C)c1NC(=O)CN1CCCC1 -3.99%
COc1ccc(-n2c(SCC(=O)NCc3ccc(Cl)cc3)nc3ccsc3c2=O)cc1 -26%
COc1nccnc1NS(=O)(=O)c1ccc(N)cc1 -3.04%
Cc1ccc(NC(=O)CCCc2nc(-c3ccco3)no2)cc1Cl -7.47%
COc1ccc(-n2nnnc2C2CCN(S(=O)(=O)c3cccc(C(F)(F)F)c3)CC2)cc1 -14.4%
COc1cccc(NC(=O)C(Cc2ccccc2)N2Cc3ccccc3C2=O)c1 (configuration not stated) 0.244%
COc1ccc(-c2noc(CCC(=O)N(C)c3cc(Cl)ccc3OC)n2)cc1 -15.8%
CC(C)CCOc1ccc(C(=O)NCC2OCCc3ccccc32)cc1 (configuration not stated) -9.12%
COc1ccc(NS(=O)(=O)c2ccc(N3CCCCS3(=O)=O)cc2)cc1Cl -24%
COc1cccc(-n2c(=O)c3cc(OC)c(OC)cc3n(CC(=O)Nc3ccc(F)cc3)c2=O)c1 -20.9%
COc1ccccc1N1CCN(c2ncnc3c2c(-c2ccccc2)cn3-c2cccc(Cl)c2)CC1 -11.2%
Cc1ccc(OCCSc2nc(-c3ccccc3C)nc3cc(=O)[nH]n23)cc1Cl 6.67%
Cc1nn(-c2nc(-c3ccccc3)cc(C(F)(F)F)n2)c(C)c1Cl -20.1%
CCc1nn(C(CC)C(=O)NCc2ccc(OC)c(OC)c2)c(=O)c2cc3oc(C)cc3n12 (configuration not stated) -27.7%
COc1ccc(S(=O)(=O)N2CCC(Oc3ccc(-n4cnnn4)cc3)CC2)cc1 -4%
COc1cccc(OC)c1C(=O)NCCc1sc(-c2cccc(F)c2)nc1C -15.1%
CCOc1ccc2c(c1)c(=O)c(C(=O)c1ccc3c(c1)OCO3)cn2Cc1ccc(F)cc1 -18.4%
CC(N)CCCC(C)(C)O (configuration not stated) 0.0651%
COc1cc(/C=C(\C#N)c2nc3ccc(C)cc3[nH]2)ccc1OCc1ccc(C)cc1 -5.8%
CC(=O)Nc1ccc(NC(=O)c2nc(S(=O)(=O)Cc3ccc(F)cc3)ncc2Cl)cc1 -94.2%
COc1cccc(CNC(=O)c2cnc3c(-c4ccc(F)cc4)c(C)nn3c2C)c1 0.905%
CCc1ccc(C2C(C(=O)Nc3ccccc3OC)=C(C)Nc3c(C(=O)Nc4ccc(C)cc4)cnn32)cc1 (configuration not stated) -23.6%
CCN(C(=O)c1cn(-c2cccc(OC)c2)c(=O)c2ccccc12)c1ccccc1C -27.5%
COc1ccc(C(=O)Nc2ccccc2-c2nc3ccccc3s2)cc1OC -14.5%
Cc1ccc(C)c(NC(=O)CSc2nccn2-c2cccc(C)c2C)c1 -9.21%
COc1ccc(OC)c(NC(=O)c2oc(=O)c3ccccc3c2-c2ccccc2)c1 -17.4%
COc1ccc(CC(=O)N2CCc3cc(OC)c(OC)cc3C2COc2ccc(F)cc2)cc1 (configuration not stated) -29.5%
N#CCC(=O)NN -4.46%
COc1cc2c(cc1OC)C(c1cccc(Cl)c1)CC(=O)N2 (configuration not stated) -16.9%
Cn1nc(-c2ccccc2F)c2cc(C(=O)NCc3ccccc3Cl)sc21 -40.4%
COc1ccc(N2CCN(S(=O)(=O)c3ccc(F)c(C(=O)Nc4ccccc4Cl)c3)CC2)cc1 -38.4%
CCc1ccc(OCCSc2nc3ccccc3n2CC(=O)N2CCCCC2)cc1 -39%
O=C(c1ccc(F)cc1)N1CCc2c([nH]c3ccccc23)C1c1ccc(Cl)cc1 (configuration not stated) -32.1%
CCOc1ccc(NCc2cccn2-c2nnc(N3CCC(C(=O)NCc4ccccc4Cl)CC3)s2)cc1 -56.6%
CC(C)(C)OC(=O)N1CCC(c2c(C(=O)NCc3cccs3)cnn2-c2cccc(F)c2)CC1 -16%
COc1ccc(Cl)cc1NC(=O)N1CCN(S(=O)(=O)c2ccc3c(ccn3C)c2)CC1 -19.8%
O=C(c1ccc2c(Cl)c3c(nc2c1)CCCC3)N1CCN(c2ccc(Cl)cc2)CC1 -8.61%
COc1ccc(N2CCN(CCCNC(=O)C3COc4ccccc4C3)CC2)cc1 (configuration not stated) -5.18%
O=C(Nc1nc2c(F)cc(F)cc2s1)c1ccc(S(=O)(=O)N2CCc3ccccc32)cc1 -56.1%
CCOc1ccc(-n2c(=O)c3c4c(sc3n(CC(=O)NC(C)CC)c2=O)CCCCC4)cc1 (configuration not stated) -13.4%
Cc1ccc(CNC(=O)CSc2nc3c(sc4ccccc43)c(=O)n2CCCC(=O)NCCO)cc1 4.74%
O=C(Nc1ccc(F)cc1)Nc1csc2c1CCCC2 6.43%
C[C@@H](O[C@H]1OCCN(Cc2n[nH]c(=O)[nH]2)[C@H]1c1ccc(F)cc1)c1cc(C(F)(F)F)cc(C(F)(F)F)c1 -44.4%
CCN1C(C(=O)c2ccccc2)=C(OC(=O)COc2ccc(C)cc2)c2ccccc2S1(=O)=O -39.8%
Oc1cccc(O)c1 0.476%
C[C@@H]1CCC[C@H](C)N1 -2.97%
Cc1ccccc1-c1noc(CSc2nc3ccccc3[nH]2)n1 -29.4%
COc1ccc(CCCc2nnc(SCC(=O)Nc3cccc(F)c3C)o2)cc1 -19.8%
CCOCCc1nn2c(=O)cc(COC(=O)c3ccccc3OC)nc2s1 -0.644%
CCOC(=O)C1CCCN(C(=O)c2ccc3c(c2)sc2nc(-c4cccc(OC)c4)cn23)C1 (configuration not stated) -76.4%
COCCCn1c(SCc2cccc(Cl)c2)nc2c(sc3ccccc32)c1=O -10.5%
Cc1cc(=O)n2nc(N(C)CC(=O)NCc3ccccc3C)sc2n1 -4.79%
CCCC(=O)Nc1cccc(OCc2cc(=O)n3cccc(C)c3n2)c1 8.62%
CCc1ccccc1Nc1nn2c(=O)c3ccc(C(=O)NCCC4=CCCCC4)cc3nc2s1 -21%
Cc1c(-c2cccc3c(CCCOc4cccc5ccccc45)c(C(=O)O)n(Cc4cccnc4)c23)c(COc2ccc(N3CCN([S+](=O)([O-])N(C)C)CC3)cc2)nn1C -22.1%
O=C(NCCc1ccccc1)c1cc(Nc2ccccc2)nc2ccccc12 -14.2%
CCOCCc1nnc(NC(=O)C(=O)c2cc(C)n(-c3ccc(C)cc3C)c2C)s1 -4.1%
CCn1c(C)c(C)c2cc(C(=O)NCC(C)c3ccccc3)ccc21 (configuration not stated) -3.69%
COc1ccc(N(CC(=O)Nc2cccc(Cl)c2)S(=O)(=O)c2c(C)[nH]c(=O)[nH]c2=O)cc1 0.391% [at 11.5 µM, percent change from vehicle, -100% = no light]
CCOc1ccc(Nc2nc(-c3cccc(Cl)c3)c3c(n2)-c2ccccc2OC3)cc1 -12.5%
CCC1CN(C(=O)N2CCC(C(=O)NCCc3ccc(OC)cc3OC)CC2)c2cc(C)ccc2O1 (configuration not stated) -45.8%
Cc1cccc(OCc2nc(CC(=O)Nc3ccc(Cl)cc3)cs2)c1 -14.7%
Cc1cccc(C)c1-n1ncc(C(=O)NCCCN2CCC(C)CC2)c1C1CCN(C(=O)OC(C)(C)C)CC1 10.7%
CCOC(=O)c1cnc2c(ccc3ccccc32)c1Nc1ccc(C(C)=O)cc1 -31.8%
COc1cccc(CSc2nc3ccncc3n2CC(=O)Nc2ccc(OC)c(OC)c2OC)c1 3.11%
Cc1cn(-c2cc(NC(=O)c3ccc(C)c(Nc4nccc(-c5cccnc5)n4)c3)cc(C(F)(F)F)c2)cn1 -8.1%
CCCCN(CCCC)CC(O)c1cc(Cl)cc2c1-c1ccc(Cl)cc1/C2=C/c1ccc(Cl)cc1 (configuration not stated) -16.7%
COc1ccccc1CNC(=O)Cc1csc2nc(-c3ccc(F)cc3)cn12 -9.4%
O=S(=O)(c1ccc(Cl)cc1)c1nc(-c2cccs2)oc1N1CCCCC1 -24.7%
CCc1cc2c(cc3c(=O)n(CC(=O)NC(C)c4ccccc4)ncn32)s1 (configuration not stated) -6.91%
COc1cccc(NC(=O)CCN2C(=O)c3ccccc3Sc3ncccc32)c1 -6.27%
Cc1cc(C)nc(-n2nc(C)c3c2N(Cc2ccccc2F)C(=O)CC3c2ccc(Cl)cc2)n1 (configuration not stated) -17.9%
CCc1ccccc1NC(=O)C1CCN(S(=O)(=O)c2cn(C)cn2)CC1 -1.9%
CCOC(=O)c1sc2ccccc2c1S(=O)(=O)NCc1ccccc1OC -28.8%
O=C(Nc1nnc(-c2ccco2)o1)c1cc(-c2ccccc2)nc2ccccc12 -10.8%
Cc1c(CCNC(=O)c2c(F)cccc2F)sc2nc(-c3ccc(F)cc3)nn12 9.5%
CCOc1ccc(CCn2c3c(c(=O)[nH]c2=O)C(NC(=O)c2cccc(F)c2)(C(F)(F)F)C(=O)N3)cc1OCC (configuration not stated) -6%
Cn1ncc2c(N3CCN(c4ccc(F)cc4)CC3)ncnc21 -22.2%
O=C(Cc1ccc(-c2ccccc2)cc1)NCCS(=O)(=O)N1CCN(c2ccc(F)cc2)CC1 -3.43%
Cc1cc(O)cc(C)c1Cl -0.488%
COc1cc(-c2nc3sccn3c2Nc2c(C)cccc2C)ccc1O -3.89%
CC(=O)N(c1onc(C)c1C)S(=O)(=O)c1ccc(N)cc1 6.26%
O=C1Cc2cc(S(=O)(=O)N3CCN(c4cccc(Cl)c4)CC3)ccc2N1 -11.3%
CC(=O)N1CCCc2ccc(NS(=O)(=O)c3cccc(Cl)c3)cc21 -2.65%
CCn1c(C(=O)NCCc2ccc(S(N)(=O)=O)cc2)cc2sc(Cl)cc21 -34.9%
CC(=O)N1CCCC1c1nc2ccccc2n1Cc1ccccc1Cl (configuration not stated) -9.13%
O=C(CC1N=C2c3ccccc3N=C(SCc3ccc(F)cc3)N2C1=O)NCCc1ccccc1 (configuration not stated) -21.3%
